# Source: PubChem BioAssay AID1508623 (National Center for Advancing Translational Sciences (NCATS), 2021)
# Out of some 48,000 compounds screened, about 450 (0.94%) were called active. Inconclusive results (about 19%) are left out. Calls follow the shape of the dose curve; as a rule, active = well fitted inhibition curve with a large enough effect; inconclusive = small, poorly fitted or top-dose-only effect; inactive = no such curve, though single readings can be large or run the other way. This is one part of the list.
# Assay: Primary qHTS for Identification of Small Molecule Inhibitors of Huntingtin Promoter Activity; also: nearly all actives have a fitted effect of over 50% in size
# Conditions: HEK293 HTT promoter firefly luciferase reporter (activity 0% = vehicle and -100% = no light), 24 h; series mostly up to 57.5 µM; activity change, negative = inhibition: at the top concentration
# Outline: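 HEK293 luciferase promoter-reporter cells (2,500/well) plated 24 h, then compounds added at up to 57.5 uM final for 24 h at 37 °C. Firefly luminescence by Dual-Glo, normalized to vehicle (0%) and zero RLU (-100%).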
# Potency is read from the fitted curve at half-maximal effect.
Compound,"activity change, negative = inhibition",Potency
COc1cc(/C=C/c2nc(C#N)c(N3CCN(C)CC3)o2)cc(OC)c1OC,inactive: -7.79%,–
COc1ccc(NC(=O)COCc2cc(-c3ccc4c(c3)OCO4)on2)cc1,inactive: -0.766%,–
COc1cccc(NS(=O)(=O)c2ccc3c(c2)n(C)c(=O)n3C)c1,inactive: -32%,–
CSc1cccc(NC(=O)C2CCN(c3nc4ccccc4[nH]3)CC2)c1,inactive: -4.81%,–
Cc1c(-c2nc(-c3ccccc3)no2)nnn1-c1ccc(F)c(Cl)c1,inactive: 43.6%,–
CCc1ccc(NC(=O)Cn2c(=O)n(-c3ccc(Cl)c(Cl)c3)c(=O)c3c(C)c(C)sc32)cc1,inactive: -7.01%,–
COc1ccc(Cl)c2sc(NC(=O)c3ccc(S(=O)(=O)N4CCOCC4)cc3)nc12,inactive: 3.08%,–
CCCC(CCC)C(=O)Nc1cc(-c2cn3cccnc3n2)ccc1OC,inactive: -6.67%,–
CCc1ccc(N2C(=O)CSC23C(=O)N(Cc2ccc(C)cc2)c2ccccc23)cc1 (stereo not given),inactive: -19.7%,–
COc1ccc(S(=O)(=O)c2c(C)c(NS(=O)(=O)c3ccccc3)cc(C)c2O)cc1,inactive: -19.8%,–
O=C(CSc1nc2c(c(=O)[nH]1)CCC2)Nc1ccccc1C(F)(F)F,inactive: -19.6%,–
COc1ccc(Cn2cc(C(=O)c3ccc(C)cc3)c(=O)c3cc(OC)c(OC)cc32)cc1,inactive: -8.09%,–
O=C(NCN1CCOCC1)c1cnccn1,inactive: -11.5%,–
O=C(c1ccc2c(c1)CCCC2)N1CCN(c2nc3c(F)cccc3s2)CC1,inactive: -9.46%,–
COc1cc(C(c2c(C)[nH][nH]c2=O)c2c(C)[nH][nH]c2=O)ccc1OC(=O)c1cccc(C)c1,inactive: 0.52%,–
CCn1cc(C(=O)NCc2ccccc2)c(=O)c2cc(S(=O)(=O)N3CCc4ccccc4C3)ccc21,inactive: -11.8%,–
CCOC(=O)C1CCCCN1S(=O)(=O)c1csc(C(N)=O)c1 (stereo not given),inactive: -12.7%,–
Cc1ccc(C2=CC(c3ccccc3F)n3c(nc4ccccc43)N2)cc1C (stereo not given),inactive: -1.28%,–
CN(C)c1ccc(-n2c(CCC(=O)O)ccc2-c2ccccc2)cc1,inactive: -6.17%,–
COc1ccc(CC(=O)NCc2ccc3c(c2)CCN3C(=O)c2ccccc2)cc1OC,inactive: -11.3%,–
COc1ccc(C2=NC(c3ccncc3)=Nc3ccc(Br)cc3N2)cc1,inactive: -9.71%,–
CCn1cc(C(=O)N2CCN(c3ccc(F)cc3)CC2)c(=O)c2cc(S(=O)(=O)N(C)C3CCCCC3)ccc21,inactive: -7.79%,–
CCOC(=O)C1=C(CN2CCCCC2)NC(=O)NC1c1cc(C)ccc1C (stereo not given),inactive: -17.9%,–
COc1ccccc1N1CCN(C(CNC(=O)C(=O)NCc2ccc(C)cc2)c2cccnc2)CC1 (stereo not given),–,active: 11.2 µM

Compound,"activity change, negative = inhibition",Potency
COc1cc(Cl)c(C)cc1NC(=O)c1cc2c(Cl)nc3ccc(C)cc3c2s1,inactive: -3.96%,–
Cc1cccc(-c2nc3c(c(SCc4ccccc4Cl)n2)Cc2c(CO)cnc(C)c2O3)c1,inactive: -12.9%,–
CCOc1ccccc1NC(=O)c1c(NC(=O)C(C)Oc2ccc(Cl)cc2)sc2c1CCCCC2 (stereo not given),inactive: -19%,–
CCNC(=O)c1cnc2c(-c3ccccc3)c(C)nn2c1C,inactive: -9.34%,–
CNC(=O)CN1C(=O)c2cccnc2Sc2ccccc21,inactive: -4.06%,–
CC(C)CC1N=C2c3ccccc3N=C(SCC(=O)NCCc3ccc(Cl)cc3)N2C1=O (stereo not given),inactive: -9.89%,–
CC(C)CCn1c(=O)c2sccc2n2c(CCCC(=O)NC(C)C)nnc12,inactive: -14.6%,–
COc1ccc(-c2nc3cc(C)ccn3c2NC(=O)c2ccc(C)c(C)c2)cc1,inactive: -2.96%,–
COc1ccc(-n2c(=O)c3c4c(sc3n(Cc3ccccc3Cl)c2=O)CCC4)c(OC)c1,inactive: -14.1%,–
Cc1cccc(OCC(=O)Nc2ccccc2OCc2cc(=O)n3ccccc3n2)c1,inactive: 2.48%,–
COc1cccc(CNC(=O)CN(C)S(=O)(=O)c2ccc3[nH]c4c(c3c2)CCCC4)c1,inactive: -18.7%,–
CCOc1ccccc1CNC(=O)C1CCCN(c2ncnc3onc(-c4ccc(F)cc4)c23)C1 (stereo not given),inactive: -5.72%,–
COc1cccc(-c2cc(C(F)(F)F)nc(NCCc3ccccc3)n2)c1,inactive: 14.3%,–
Cc1cccc(C)c1-n1ncc(C(=O)Nc2ccc3c(c2)OCO3)c1C1CCN(C(=O)OC(C)(C)C)CC1,inactive: -11.3%,–
COc1ccccc1CCNC(=O)c1ccc2c(c1)c(C)c(C)n2Cc1ccc(Cl)cc1,inactive: -29.6%,–
O=C(O)Cn1c(=O)n(Cc2ccc(Br)cc2F)c(=O)c2ccc(Cl)cc21,inactive: -2.35%,–
Cc1ccc2c(c1)-c1nc(-c3ccc4c(c3)NC(=O)CO4)cc(-c3ccc(F)cc3)c1CO2,inactive: -12.5%,–
Cc1nc2c(C(=O)NCCc3ccc(Cl)cc3)c[nH]n2c(=O)c1Cc1ccc(Cl)cc1,inactive: -27.4%,–
O=C(CSc1nnc(-c2ccc(O)cc2)o1)c1ccc(Br)cc1,inactive: -14%,–
COc1ccccc1C(=O)Nc1c(C(=O)N(C)Cc2ccccc2)sc2nc(C)c(Cl)c(C)c12,inactive: -29.6%,–
COc1ccc(-c2noc(-c3ccc(N4CCN(C)CC4)c([N+](=O)[O-])c3)n2)cc1OC,inactive: 29.4%,–
Cc1cc(Br)ccc1NC(=O)C1CCN(S(=O)(=O)c2cccc3nsnc23)CC1,inactive: -17.2%,–
Cc1ccccc1-c1nnc(CN2CCN(c3ccccn3)CC2)o1,inactive: -27.5%,–
CCOC(=O)c1ccc(NC(=O)N2CCOc3ccccc32)cc1,inactive: 55.4%,–

Compound,"activity change, negative = inhibition",Potency
COCCCNC(=O)C(=O)Nc1c2c(nn1-c1cccc(Cl)c1)CSC2,inactive: -34.3%,–
CNC(=O)Cn1cc(S(=O)(=O)Cc2ccccc2F)c2ccccc21,inactive: -0.576%,–
Cc1nn(C(=O)c2ccccc2F)c(C)c1S(=O)(=O)N1CCCCCC1,inactive: -6.71%,–
COc1ccc(-c2oc3ncn4nc(COc5c(C)cccc5C)nc4c3c2-c2ccc(OC)cc2)cc1,inactive: -6.75% [at 11.5 µM],–
CCOc1ccccc1NC(=O)N1CCc2cc(S(=O)(=O)N3CCC(C)CC3)ccc21,inactive: -11.6%,–
Cc1cccc(NC(=O)c2sc(-n3nc(C)c(Cc4ccc5c(c4)OCO5)c3C)nc2C)c1C,inactive: -8.31%,–
COc1ccc(-c2cc(C)no2)cc1S(=O)(=O)NC(C)C,inactive: -18.4%,–
COc1cccc(NC(=O)N2CCN3CCCCC3C2)c1 (stereo not given),inactive: -0.831%,–
CCCOC(=O)CSc1ncnc2sc3c(c12)CCC(C)C3 (stereo not given),inactive: 54.3%,–
COc1cc(OC)cc(N2C(=O)N(CC(=O)c3ccc(F)cc3)c3ccccc3S2(=O)=O)c1,inactive: -8%,–
COc1ccc(-c2noc(Cn3c(=O)c4ccccc4n(CC(=O)Nc4cccc(OC)c4)c3=O)n2)cc1,inactive: -29.4%,–
Cn1nnnc1SCCCNCc1ccccc1OCc1ccccc1Cl,–,active: 14.1 µM
COc1ccccc1NC(=O)c1sc2nc(N3CCOCC3)c3c(c2c1N)CC(C)(C)OC3,inactive: -0.204%,–
Cc1ccc(NC(=O)CSc2ncc3c(n2)-c2ccc(Cl)cc2N(C)S3(=O)=O)cc1F,inactive: -23.1%,–
CCOC(=O)c1ccc(NC(=O)c2oc(=O)c3ccccc3c2-c2ccccc2)cc1,inactive: -7.21%,–
Cc1cccc(Cn2c(=O)n(CC3CCC(C(=O)N4CCOCC4)CC3)c(=O)c3sccc32)c1 (stereo not given),inactive: -27.2%,–
COc1ccccc1-c1nc2c(c(SCC(=O)Nc3c(C)cc(C)cc3C)n1)Cc1c(CO)cnc(C)c1O2,inactive: -14.3%,–
CCC(=O)N1CCc2cc(S(=O)(=O)CCC(=O)NCc3ccc(C)cc3)ccc21,inactive: 3.56%,–
CCOC(=O)c1c(NC(=O)c2cc3nc(-c4ccc(OC)cc4)cc(C(F)(F)F)n3n2)sc2c1CCC(C)C2 (stereo not given),inactive: -9.53%,–
CCc1cccc(NC(=O)C(Cc2ccccc2)NS(=O)(=O)c2ccc3c(c2)oc(=O)n3C)c1 (stereo not given),inactive: -25.7%,–
CCc1cccc(NC(=O)c2cc3c(=O)n(Cc4ccc(OC)cc4)ccc3nc2C)c1,inactive: -26.1%,–
CCCSc1nnc2c(n1)OC(c1sccc1C)Nc1ccccc1-2 (stereo not given),inactive: 49.3%,–
CCOc1ccc(CCNC(=O)c2ccc(Nc3nc4ccccc4n4nnnc34)cc2)cc1OCC,inactive: 1.24%,–
CCOC(=O)c1ccc(NC(=O)c2c(N3CCCC3=O)c3cc(OC)ccc3n2C)cc1,inactive: -39.3%,–

Compound,"activity change, negative = inhibition",Potency
Cc1c(Cl)cccc1NC(=O)CN1C(=O)COc2ccc(S(=O)(=O)N3CCOCC3)cc21,inactive: -0.644%,–
CCc1ccc(Cn2c(CNS(=O)(=O)c3ccc(F)c(Cl)c3)nc3cccnc32)cc1,inactive: -14%,–
CC(=O)N1CCCC1c1nc2ccccc2n1Cc1ccccc1 (stereo not given),inactive: -6.36%,–
CC(=O)N1CCc2cc(S(=O)(=O)NC(Cc3ccccc3)C(=O)Nc3cccc(C)c3)ccc21 (stereo not given),inactive: -32%,–
Oc1c(C(c2ccc(F)cc2)N2CCOCC2)sc2nc(-c3ccco3)nn12 (stereo not given),inactive: 19.3%,–
O=C(Cn1ncc2c([nH]c3ccccc32)c1=O)Nc1cccc(C(F)(F)F)c1,inactive: 3.15%,–
CCc1ccc(-n2c(=O)c3c4c(sc3n(Cc3ccc(C)cc3)c2=O)CCC4)cc1,inactive: -11.4%,–
Cc1cc(C)cc(N2CC(c3nc(-c4cccc(Cl)c4)no3)CC2=O)c1 (stereo not given),inactive: -31.8%,–
Cc1ccccc1CN1c2ccccc2S(=O)(=O)c2ccccc21,inactive: 0%,–
O=C1C(Nc2ccccc2)=CC(c2ccc(Br)cc2)N1c1ccccc1 (stereo not given),inactive: 30%,–
COc1ccc(C)cc1NC(=O)NCc1cccn1Cc1ccccc1,inactive: -7.07%,–
COc1ccccc1NC(=O)CN(C)S(=O)(=O)c1ccc2c(c1)c(=O)n(C)c(=O)n2C,inactive: -10.3%,–
Cc1ccc(CCNC(=O)NCc2noc3ccccc23)cc1,inactive: -5.96%,–
O=C(NCc1ccccc1)c1ccc2nc(CCc3ccccc3)oc2c1,inactive: 42.8%,–
CC1CCCN(S(=O)(=O)c2ccc3[nH]c(=O)cc(C(=O)NCCc4ccc(Cl)cc4)c3c2)C1 (stereo not given),inactive: -12.5%,–
CCOCCCN(C(=O)Nc1ccc(Cl)cc1)C1CCN(C(C)=O)CC1,inactive: -4.17%,–
Cc1c(CNC2CCCCCC2)c(C(=O)O)c(C)n1Cc1ccc(F)cc1Cl,inactive: -17.2%,–
O=C(COc1ccc(Cl)cc1)Nc1nnc2n1CCS2,inactive: -2.29%,–
O=C1CN2Cc3c(ccc(Cl)c3Cl)N=C2N1,inactive: -7.29%,–
COc1ccc(S(=O)(=O)NCCc2csc3nc(-c4ccc(OC)c(OC)c4)nn23)cc1C,inactive: -0.187%,–
CC(C)(C)c1ccc(C(=O)Nc2cc(-c3nc4ccccc4o3)ccc2Cl)cc1,inactive: 6.85%,–
CCCCn1c(=O)c2oc3ccccc3c2n(CC(=O)Nc2cccc(Cl)c2C)c1=O,inactive: 6.16%,–
CCc1ccccc1NC(=O)C1CCN(S(=O)(=O)c2ccc3[nH]c(=O)ccc3c2)CC1,inactive: -4.3%,–
